Target: the molecule itself
Test: non-reducing SDS-PAGE; HeLa cells lysed in RIPA, SDS-PAGE loading buffer lacking β-mercaptoethanol, no fixative; blot for Sun1 and Sun2

B1: Sun1 (natural protein)
chain: not shown
notes: Sun1, SUN-domain protein of the inner nuclear membrane, endogenous in HeLa cells; also called endogenous Sun1; source: endogenous, HeLa lysate
For B1, the “stoichiometry N” value was roughly 3.
